Values marked as one replicate rest on one cluster of the flow cell; about a third of the high ones do not repeat.
Tested on: ATP
Assay: switch fluorescence ratio, 500 uM ATP over buffer (Cy3 cluster intensity, sum of 5 cycles each) (fold (ratio)); higher = stronger signal-on switching upon ATP binding; sequences stand for … in TCGTCGGCAGCGTCAGATGTGTATAAGAGACAGTTTTTTTTTTTTTTTTTTTTTTTTT…TC
Details: aptamer strand: ATP DNA aptamer (quencher-CACCTGGGGGAGTATTGCGGAGGAAGG + anchor), 100 nM annealed; ATP concentration: 500 uM; one replicate
Outline: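 Clusters with intensities outside 100-1000 RFU were excluded. The remaining Cy3-labelled switching-strand clusters on a modified Illumina MiSeq flow-cell had been annealed to 100 nM quencher-labelled ATP aptamer and imaged in selection buffer, then after 15 min with 500 uM ATP at 22 °C, for five cycles separated by NaOH stripping and re-annealing. The fluorescence ratio, averaged per switch-domain sequence, is each cluster's summed target-cycle Cy3 intensity over its summed buffer-cycle Cy3 intensity.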
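Note: ATP exposure 15 min at 22 °C before imaging.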

Row | Sequence | switch fluorescence ratio
1 | GTGTAGGGGC | 1.14
2 | GTGTAGTGAG | 0.962
3 | GTGTATCGA | 0.989
4 | GTGTATTGAT | 0.956
5 | GTGTCATATG | 0.981
6 | GTGTCCTGAC | 1.06
7 | GTGTCCTTCT | 0.998
8 | GTGTCTAGAG | 1
9 | GTGTCTGACG | 0.995
10 | GTGTGAATCG | 0.978
11 | GTGTGCAAGC | 1.09
12 | GTGTGCATAG | 1.01
13 | GTGTGCCGAG | 0.964
14 | GTGTGTAATG | 0.964
15 | GTGTGTCCGT | 1.01
16 | GTGTGTTAAT | 1.03
17 | GTGTGTTGTG | 0.961
18 | GTGTTCTG | 1.02
19 | GTGTTCTTTT | 0.976
20 | GTGTTGGGAA | 1.02
21 | GTGTTTCCAT | 0.999
22 | GTGTTTCGAT | 1.01
23 | GTTAAAATAA | 0.954
24 | GTTAAACGGT | 1.01
25 | GTTAAATGTT | 0.987
26 | GTTAACCGCA | 1.38

Row | Sequence | switch fluorescence ratio
27 | GTTAACCTGT | 1.03
28 | GTTAACTAGT | 1
29 | GTTAACTCCC | 1.33
30 | GTTAAGGGTC | 1.03
31 | GTTAAGTAAG | 1.18
32 | GTTAAGTATC | 0.974
33 | GTTAAGTCAG | 0.959
34 | GTTAAGTGTG | 1.02
35 | GTTAATAATT | 1.03
36 | GTTAATACTT | 1.01
37 | GTTAATCCTG | 0.987
38 | GTTAATCGGC | 0.951
39 | GTTAATTGTG | 1.02
40 | GTTACAGGAA | 0.983
41 | GTTACATTTA | 1.14
42 | GTTACCTTAA | 1.1
43 | GTTACGCAT | 3.14
44 | GTTACTTTTC | 0.96
45 | GTTAGCCTGC | 1.01
46 | GTTAGCGGCG | 1.04
47 | GTTAGGCT | 1.02
48 | GTTAGGGATT | 1.02
49 | GTTAGTTGCA | 0.947
50 | GTTATAGTCA | 0.962
51 | GTTATCATGG | 1.01
52 | GTTATCCAAT | 0.983

Row | Sequence | switch fluorescence ratio
53 | GTTATCCAGC | 1.01
54 | GTTATGGACT | 1.03
55 | GTTATGTATC | 1
56 | GTTATTAAGG | 1.01
57 | GTTATTAGGA | 1.06
58 | GTTATTGCCG | 0.984
59 | GTTATTTGAA | 0.991
60 | GTTCAAGTTG | 1.01
61 | GTTCAATGAG | 0.972
62 | GTTCAGATGG | 0.986
63 | GTTCAGCAG | 1.02
64 | GTTCAGCAGT | 1.08
65 | GTTCCATCGG | 1.02
66 | GTTCCGTGAG | 1.07
67 | GTTCCTTTAT | 0.99
68 | GTTCGACGCA | 1.5
69 | GTTCGAGTGG | 1.01
70 | GTTCGTAAGA | 0.994
71 | GTTCGTAATA | 1.44
72 | GTTCGTATTA | 1.01
73 | GTTCGTTGGA | 1.01
74 | GTTCTAAGTG | 0.992
75 | GTTCTACAAA | 1.05
76 | GTTCTATACC | 1.02
77 | GTTCTATATG | 0.96
78 | GTTCTCGGGA | 1.01

Row | Sequence | switch fluorescence ratio
79 | GTTCTTATCC | 1.03
80 | GTTCTTGCAG | 1.01
81 | GTTGAATGCT | 0.932
82 | GTTGACAATG | 0.947
83 | GTTGACGGCC | 1.02
84 | GTTGAGAGCT | 0.943
85 | GTTGAGATTG | 0.958
86 | GTTGAGCATA | 1.03
87 | GTTGAGCTTG | 0.998
88 | GTTGAGGCAC | 1.01
89 | GTTGAGGGAA | 0.961
90 | GTTGATATGT | 1.02
91 | GTTGATCCGG | 1.03
92 | GTTGCAACTT | 0.973
93 | GTTGCACCTC | 0.993
94 | GTTGCAGACT | 1.15
95 | GTTGCAGAGC | 1.12
96 | GTTGCCAGCG | 0.995
97 | GTTGCCCGCA | 1.04
98 | GTTGCGAATA | 1.04
99 | GTTGCGTGCA | 1.04
100 | GTTGCTTTCG | 0.962
101 | GTTGGACATG | 0.991

— the supplement of paper PMC10126150
